The data set relates to ATP. Description: switch fluorescence ratio, 500 uM ATP over buffer (Cy3 cluster intensity, sum of 5 cycles each) (fold (ratio)); higher = stronger signal-on switching upon ATP binding; sequences stand for … in TCGTCGGCAGCGTCAGATGTGTATAAGAGACAGTTTTTTTTTTTTTTTTTTTTTTTTT…TC. The note with it: aptamer strand: ATP DNA aptamer (quencher-CACCTGGGGGAGTATTGCGGAGGAAGG + anchor), 100 nM annealed; ATP concentration: 500 uM; one replicate. In a few lines:
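Between each of five buffer/ATP cycles, the flow-cell was stripped with NaOH and re-annealed. Each cycle imaged Cy3-labelled switching-strand clusters, annealed to 100 nM quencher-labelled ATP aptamer on a modified Illumina MiSeq flow-cell, first in selection buffer and then after 15 min with 500 uM ATP at 22 °C. The fluorescence ratio is summed target-cycle over summed buffer-cycle Cy3 intensity per cluster, averaged per switch-domain sequence, with clusters outside 100-1000 RFU excluded.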

Values marked as one replicate rest on one cluster of the flow cell; about a third of the high ones do not repeat.
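Further: ATP exposure 15 min at 22 °C before imaging.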

With TTATAGTTCG, the switch fluorescence ratio amounted to 1.03.

As for AAGAGCGTCC, the switch fluorescence ratio amounted to 1.01.

AGAGACGTCA: the switch fluorescence ratio is 0.999.

Turning to CTGGTGGGCA, the switch fluorescence ratio turned out to be 0.97.

On to TTACGGCACC, for which the switch fluorescence ratio was 1.81.

As to ACCGAGCGCA, the switch fluorescence ratio came to 3.1.

On to GTGACGTAAC, for which the switch fluorescence ratio turned out to be 1.22.

On to GATGATAGGA, for which the switch fluorescence ratio is 1.02.

GTAGGCATTT: the switch fluorescence ratio amounted to 1.02.

In the case of CCAGATACTG, the switch fluorescence ratio was determined as 1.09.

Regarding ATCCATATAT, the switch fluorescence ratio came out at 1.07.

As for AAACACCCGG, the switch fluorescence ratio came out at 1.11.

Consider TGGCTTAGCA, for which the switch fluorescence ratio came to 1.02.

In the case of ACCGGGGCCT, the switch fluorescence ratio was 1.

On to AGGCCTGC, for which the switch fluorescence ratio is 0.973.

For TGATGCAATG, the switch fluorescence ratio was determined as 1.63.

For the sequence TCGACCTTT, the switch fluorescence ratio is 1.03.

For CGTCGTCGGC, the switch fluorescence ratio was determined as 1.07.

Regarding ATATGCGGTA, the switch fluorescence ratio amounted to 1.01.

As to GACAAATCGG, the switch fluorescence ratio was 0.979.

With AATGTGAGTC, the switch fluorescence ratio turned out to be 0.992.

Consider TTCATCACTA, for which the switch fluorescence ratio worked out at 1.01.

In the case of AATATGGCGG, the switch fluorescence ratio was 0.985.

For the sequence CGTTTACTGG, the switch fluorescence ratio was determined as 0.978.

CCTTAAGGTG: the switch fluorescence ratio amounted to 3.14.

With GCGGCAAGAA, the switch fluorescence ratio worked out at 1.06.

Take ATAATGGCAC: the switch fluorescence ratio was 1.

As to CTATTGTATG, the switch fluorescence ratio worked out at 0.978.

For the sequence GGGGAGACGC, the switch fluorescence ratio amounted to 1.03.

Regarding ATGTCTACAA, the switch fluorescence ratio came to 0.945.

As for CACTCAAGTG, the switch fluorescence ratio was 1.04.

For GACTAGGGTA, the switch fluorescence ratio is 0.952.

As for TCGTGCGGCT, the switch fluorescence ratio worked out at 0.966.

As for CAGGATTCCC, the switch fluorescence ratio came to 0.986.

TCGTGTAGAA: the switch fluorescence ratio was 1.01.

Turning to TTACTAAGGC, the switch fluorescence ratio stood at 0.986.

Regarding CCCGGGGT, the switch fluorescence ratio was 1.25.

GATCGACTAA: the switch fluorescence ratio was determined as 1.01.

With AAGAGGGGC, the switch fluorescence ratio was 0.906.

As to GCAATAAAGA, the switch fluorescence ratio came out at 3.42.

Consider ACGTCGGC, for which the switch fluorescence ratio worked out at 1.03.

Take GGGTCAAATT: the switch fluorescence ratio worked out at 0.953.

With AAAGTGAGGC, the switch fluorescence ratio was determined as 0.987.

Turning to CAGGGCCGGG, the switch fluorescence ratio turned out to be 1.02.

Turning to AACGGGGCCA, the switch fluorescence ratio was 1.02.

Consider ACGTTAACCA, for which the switch fluorescence ratio is 1.23.

As for ATCATGTATT, the switch fluorescence ratio came out at 1.01.

Turning to CATACTCACG, the switch fluorescence ratio is 1.45.

In the case of TCAAGTTGG, the switch fluorescence ratio stood at 1.01.

In the case of CATAGTTGGA, the switch fluorescence ratio worked out at 0.985.

As to GACTAGACTA, the switch fluorescence ratio came to 1.03.

For GCTTTGCGTC, the switch fluorescence ratio came out at 0.999.

Turning to GGAAGCGATG, the switch fluorescence ratio is 1.03.

On to TCTGGCACCC, for which the switch fluorescence ratio is 1.03.

CCGGACGTGG: the switch fluorescence ratio was found to be 1.08.

As for GCCAAATACG, the switch fluorescence ratio came to 1.22.

TCGAAGGAAC: the switch fluorescence ratio came out at 1.05.

For the sequence GGGCCTTATG, the switch fluorescence ratio is 1.

Take TGTAGGGATC: the switch fluorescence ratio was found to be 1.1.

For GCGGCTGGAG, the switch fluorescence ratio stood at 1.

In the case of GGTCGGCCA, the switch fluorescence ratio is 1.

TCTAAGAATG: the switch fluorescence ratio was 0.96.

Consider CATGGTGAGG, for which the switch fluorescence ratio worked out at 1.01.

Regarding CACGGTTCTG, the switch fluorescence ratio is 1.03.

GAAGCGGTTG: the switch fluorescence ratio amounted to 1.02.

For CGCTGACTGT, the switch fluorescence ratio was determined as 1.04.

For the sequence TCACCAAAAT, the switch fluorescence ratio worked out at 1.05.

For the sequence AGTGGTAGAC, the switch fluorescence ratio stood at 0.959.

Turning to GTAGATAGTG, the switch fluorescence ratio worked out at 0.989.

In the case of TTTGCTATTG, the switch fluorescence ratio worked out at 1.11.

For GTGGCACATC, the switch fluorescence ratio stood at 1.01.

TGTCTCGCCG: the switch fluorescence ratio stood at 1.02.

In the case of GAGGTCGTGC, the switch fluorescence ratio is 0.981.

On to GATCCGTGAC, for which the switch fluorescence ratio worked out at 1.92.

Consider CCTAGGTTAG, for which the switch fluorescence ratio was found to be 1.05.

With CTAAACGCCG, the switch fluorescence ratio was found to be 0.936.

In the case of AAGCTGTGTA, the switch fluorescence ratio came out at 1.01.

Regarding TTTTCCGATT, the switch fluorescence ratio is 0.96.

These data come from the supplement of paper PMC10126150.
